# Measurements reported in ChEMBL document CHEMBL4888484, “Replenishing the malaria drug discovery pipeline: Screening and hit evaluation of the MMV Hit Generation Library 1 (HGL1) against asexual blood stage Plasmodium falciparum ,using a nano luciferase reporter read-out” (2022).
# In all, about 150,000 compounds went through this assay and about 540 (0.36%) showed an effect of 50% or more. The list shows a part of the results.
# Test system: Plasmodium falciparum
# Test: Primary screen in NF54 nanoGlo assay, in single point, at 2uM, 72h; a lower Z score goes with more inhibition
# Format: functional, Erythrocyte
# Settings: timepoint 72 hour
SMILES,% Inhibition [%],Z score
Cc1cccn2c(=O)cc(CN(CCNS(C)(=O)=O)C3CC3)nc12,-7,1.05
CC(C)CCc1nc(CCn2ccc(=O)[nH]c2=O)n(CC(F)(F)F)n1,-3,0.46
O=C(NC1CC1)[C@@H]1CN(Cc2ccc(Cl)c(F)c2)C[C@H]1CO,-14,2.13
Cc1nnc([C@@H]2CN(C(=O)c3ccccc3)CCCN2C(=O)c2ccccc2)o1,-10,1.53
COCCc1nc(CN2CCNC(=O)C2)n(CCc2ccccc2)n1,-2,0.36
Cc1nc([C@H]2CCOC(C)(C)C2)n(CC(F)(F)F)n1,-8,1.5
O=C(Nc1nncs1)c1ccc(-c2ccc3c(c2)OCCO3)s1,1,-0.27
O=S(=O)(NCC=Cc1cccnc1)N1CCCCC1,-14,2.17
CCCC(=O)NCCc1ccc([C@H](C)O)s1,-9,1.81
CN(Cc1ccc(CC(=O)O)cc1)CC1(CO)CCCC1,0,-0.04
CCn1nnc2c(N3CC(C(=O)Nc4nc5c(s4)CCCC5)C3)ncnc21,-2,0.25
O=S1(=O)CCC[C@H](NS(=O)(=O)c2ccc(C(F)F)cc2)C1,10,-1.21
O=C(Nc1ccccc1N1CCOCC1)c1cc2c(s1)CCCC2,5,-0.65
CC(C)c1nnc([C@H]2CN(C(=O)C3CCCCC3)CC23CCOCC3)o1,-10,1.97
Cn1cc(S(=O)(=O)N2CCCCCC2)cc1C(=O)Nc1ccc(F)cc1,-11,1.55
Cc1cnc(NC(=O)c2cc3c(s2)CCCCCC3)s1,-1,0.21
CC(=O)Nc1nc(N2CCC(C(=O)N[C@@H](C)c3ccncc3)CC2)sc1C(=O)N1CCCC1,-27,2.61
NCCOc1cccc(CC(=O)N2CCn3cccc3[C@H]2c2cccnc2)c1,-6,0.89
Cc1cc(C(=O)N2CCN(C(=O)C3CC3(C)C(C)C)[C@H](C)C2)n[nH]1 (stereo partly specified),-4,0.74
O=C(N[C@H]1CC12CCN(C(=O)c1ccoc1)CC2)c1ccccc1,-14,1.78
Cc1nonc1CNC[C@H](O)c1ccc(Br)cc1,1,-0.25
CCc1onc(C)c1NC(=O)N[C@@H]1CCC[C@@H]1Oc1cnn(C)c1,-8,1.57
CC(C)(C)OC(=O)N[C@@]1(C(=O)O)CCCC1(C)C,12,-1.37
